Measured values published in PubChem BioAssay AID1345083 (National Center for Advancing Translational Sciences (NCATS), 2018).
The campaign covered roughly 94,000 compounds. About 6,200 (6.6%) were called active. Inconclusive results, whose numbers are uncertain, are shown with a selection of clear calls. The call rests on the fitted dose curve; in most records, active means well fitted inhibition curve with a large enough effect; inconclusive means small, poorly fitted or top-dose-only effect; inactive means flat fitted curve, though single readings scatter. Where the call is inconclusive, the potency comes from a doubtful curve fit.

Assay: Cytotoxic Profiling in HEK 293 Cell Line of Diverse Libraries Using Quantitative High-Throughput Screening; further: nearly all actives have a fitted effect of over 60% in size
Conditions: HEK 293 viability, ATP luminescence (CellTiter-Glo), 48-72 h; activity change, negative = cytotoxicity: at 115 µM (top of the series) unless noted; series mostly up to 115 µM
Method in brief: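 Read-out: CellTiter-Glo ATP luminescence. Cells: HEK 293, 250 cells/well. Exposure: 48 or 72 hr, 37 degree Celsius.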
On the % scale 0 is the no-effect control and ±100 the full control effect; potency means the concentration at half of the fitted maximal effect; tags describe the fitted curve by direction and shape.

Compound | activity change, negative = cytotoxicity | Potency | outcome
Cc1cccc(CC(=O)N2CCC(Cc3nc(-c4cnccn4)no3)CC2)c1 | inactive: 9.92% |  | 
COc1ccc(C2Cn3nnc(-c4nc(-c5ccccc5)no4)c3CO2)cc1 (configuration not stated) | inactive: -2.78% |  | 
CC(C)N1C(=O)CO[C@H]2CCN(Cc3ccccc3)CC[C@@H]21 |  | inconclusive: 63.1 µM [inhibitor, partial curve, poor fit] | 
COc1cccc(-c2noc(-c3ccc(-c4ccc(O)cc4)nc3)n2)c1OC |  | inconclusive: 50.1 µM [inhibitor, partial curve, poor fit] | 
CC(C)(C)c1cnc(-c2ccccc2)[nH]1 |  | inconclusive: 126 µM [inhibitor, partial curve, poor fit] | 
O=C(C1CCN(Cc2ccccc2-c2cccnc2)CC1)N1CCOCC1 | inactive: -5.14% |  | 
CCOc1ccccc1-c1nc(C2CC(=O)N(c3ccc(C)cc3)C2)no1 (configuration not stated) |  | inconclusive: 50.1 µM [inhibitor, partial curve, poor fit] | 
Cc1nn2c(c1-c1ccccc1Oc1ccccc1)N(C(=O)c1cccc(C#N)c1)CCC2 |  | active: 70.8 µM | 
O=C(CC1C(=O)NCCN1Cc1cccc(Oc2ccccc2)c1)NCc1ccco1 (configuration not stated) |  | active: 25.1 µM | 
CN(c1ccccc1)c1ccc2nnc(-c3ccccn3)n2n1 |  | inconclusive: 112 µM [inhibitor, partial curve, poor fit] | 
O=C1NC2(CCN(Cc3ccsc3)C2)COc2ccccc21 (configuration not stated) |  | inconclusive: 70.8 µM [inhibitor, full curve, poor fit] | 
N#CC1CCN(C(=O)c2nc(-c3ccc(Cl)cc3)c3ccccn23)CC1 |  | inconclusive: 44.7 µM [inhibitor, partial curve, poor fit] | 
O=C(c1ccc(F)cc1Cl)N1CCC(n2cc(-c3nc(-c4ccccc4)no3)nn2)CC1 |  | inconclusive: 56.2 µM [inhibitor, partial curve, poor fit] | 
CC(C)Cc1nc(CN2C[C@@H]3CC[C@H](C2)N(Cc2ccccc2)C3)no1 |  | inconclusive: 35.5 µM [inhibitor, partial curve, poor fit] | 
COc1cccc(Nc2cnc3ccc(-c4ccc(F)cc4)nn23)c1 |  | active: 100 µM | 
OC(c1nc(Nc2ccc(Oc3ccccc3)cc2)n[nH]1)C1CC1 (configuration not stated) |  | inconclusive: 100 µM [inhibitor, partial curve] | 
Cn1ncc(N2CCC(CNC(=O)C3(c4ccccc4)CCCC3)C2)cc1=O (configuration not stated) |  | inconclusive: 89.1 µM [inhibitor, single point] | 
COc1ccc(C(=O)NCc2nnc3ccc(-c4ccc(Cl)cc4)nn23)cc1OC |  | inconclusive: 35.5 µM [inhibitor, partial curve, poor fit] | 
COc1ccccc1Cn1c(=O)c(C(=O)NCCSC)nc2cccnc21 | inactive: 0.782% |  | 
Cc1csc(NC(=O)c2nc3c(o2)CCN(Cc2c(C)noc2C)CC3)n1 | inactive: -25.9% [at 172 µM] |  | 
COc1ccc(CN2C=C(C(=O)OCc3noc(-c4ccccc4F)n3)C(C)=NS2(=O)=O)cc1 |  | inconclusive: 28.2 µM [inhibitor, full curve, poor fit] | 
Cc1noc(C)c1[S+](=O)([O-])N1CCC2(CC1)C(=O)Nc1ccccc12 |  | inconclusive: 56.2 µM [inhibitor, partial curve, poor fit] | 
COc1cc2c(cc1C(=O)N1CCC3(CC1)c1nc[nH]c1CCN3C)CCC2 | inactive: -9.54% |  | 

Compound | activity change, negative = cytotoxicity | Potency | outcome
O=C1[C@H]2CN(Cc3c[nH]c4ccccc34)C[C@H]2C(=O)N1CCc1ccccc1 |  | inconclusive: 79.4 µM [inhibitor, single point] | 
O=C(Nc1ccccc1F)N1CCCN(CCn2nc3n(c2=O)CCCC3)CC1 | inactive: 3.25% |  | 
CNC(=O)c1cc(C)nc2onc(C3CCCN(C(=O)c4ccc(C)cc4)C3)c12 (configuration not stated) |  | inconclusive: 56.2 µM [inhibitor, partial curve, poor fit] | 
CC(C)C(=O)N1CCN(c2nc3c(s2)CC(C(=O)NCCc2cccs2)CC3)CC1 (configuration not stated) |  | active: 79.4 µM | 
Cc1c(-c2ccc(Cl)cc2)n[nH]c1C(=O)N[C@@H]1CCNC[C@H]1O |  | inconclusive: 89.1 µM [inhibitor, single point] | 
C[S+](=O)([O-])N1Cc2ccccc2CC2(CCCN2CC2CCOCC2)C1 (configuration not stated) | inactive: -14.6% |  | 
CC(=O)NCC(=O)N1Cc2ccccc2CC2(CCCN(CC3CCNCC3)C2)C1 (configuration not stated) |  |  | inactive
CCN1c2cc(C(=O)Nc3cc(C)cc(C)c3)ccc2C(=O)N2CCCCC21 (configuration not stated) |  | active: 28.2 µM | 
O=C(NCc1ccc(Cl)cc1)c1ccc2nnc(Cc3ccco3)n2c1 | inactive: -0.164% |  | 
CC(C)S(=O)(=O)N1CC(Oc2ccc(-c3noc(-c4cccnc4)n3)cc2)C1 |  | inconclusive: 2.82 µM [inhibitor, full curve, poor fit] | 
Clc1ccc(-c2nnc3n2CCN(Cc2ccccc2)C3)cc1 |  | inconclusive: 112 µM [inhibitor, single point] | 
O=C(NCCc1noc(C2CC2)n1)c1ccc(Cl)s1 | inactive: -4.15% |  | 
CCOc1ccccc1CN1CCN(c2ccc(C#N)cn2)CC1CCO (configuration not stated) |  | inconclusive: 56.2 µM [inhibitor, partial curve, poor fit] | 
CN(Cc1cnn(C)c1)C(=O)c1csc2nc(-c3ccc(C(F)(F)F)cc3)cn12 |  | inconclusive: 35.5 µM [inhibitor, partial curve, poor fit] | 
O=C(C[C@@H]1CCNC[C@@H]1Cc1cc(CC2CCCCC2)on1)NC1CCCCC1 |  | inconclusive: 100 µM [inhibitor, partial curve, poor fit] | 
COc1ccc([C@@H](NC(=O)Cc2c(F)cccc2Cl)C2CC(O)C2)cn1 (some centres not stated) |  |  | inactive
Cn1ncc2c(C(=O)NCc3ccccc3F)cc(-c3ccccc3F)nc21 |  | inconclusive: 17.8 µM [inhibitor, partial curve, poor fit] | 
Cc1ccc(N2CCN(C(=O)c3noc(-c4ccc(F)cc4)n3)CC2)cc1 | inactive: 1.65% |  | 
CC(C)NC[C@H]1O[C@H](Cc2cc(CN(C)Cc3ccccc3)on2)CC[C@@H]1O | inactive: -15.4% [at 172 µM] |  | 
O=C(Cc1ccc(F)cc1)Nc1ccc2ncnc(N3CCCC3)c2c1 |  | inconclusive: 56.2 µM [inhibitor, partial curve, poor fit] | 
Cc1ccc(C)c(NC(=O)N2CCCC(c3noc(COc4ccccc4)n3)C2)c1 (configuration not stated) |  | inconclusive: 50.1 µM [inhibitor, partial curve, poor fit] | 
CCCCCC(=O)N[C@H]1C[C@@H](Cc2cc(COc3ccccc3)on2)C1(C)C |  | inconclusive: 56.2 µM [inhibitor, full curve, poor fit] | 
CC(C)c1ccc(C(=O)N2c3ccccc3CC2c2nc(C3CC3)no2)cc1 (configuration not stated) |  | inconclusive: 14.1 µM [inhibitor, full curve, poor fit] | 

Compound | activity change, negative = cytotoxicity | Potency | outcome
Cc1cccc(CN2CCn3c(nnc3[C@@H]3C[C@@H](O)CN3Cc3cccnc3)C2)c1 |  |  | inactive
C=CCN1C[C@H]2COc3ccc(C)cc3[C@H]2N(C(=O)COc2ccccc2)CCC1=O |  | inconclusive: 50.1 µM [inhibitor, partial curve, poor fit] | 
COCCCNC(=O)CCCN1C(=O)COc2ccc(C(=O)COc3ccccc3C)cc21 |  | inconclusive: 100 µM [inhibitor, single point] | 
COc1ccc(CNC(=O)c2cc3n(n2)CC(c2ccc(Cl)cc2)OC3)cc1 (configuration not stated) |  | active: 31.6 µM | 
O=C(NCC1CC1)c1cccc(OC2CN(C3CCN(Cc4ccccc4)CC3)C2)c1 |  | inconclusive: 44.7 µM [inhibitor, partial curve, poor fit] | 
COc1ccc(-n2c(=O)c(C(=O)NCCSC)nc3cccnc32)cc1 |  |  | inactive
COc1cccc(CNC(=O)c2ccc3oc(-c4cccnc4)nc3c2)c1 |  | inconclusive: 25.1 µM [inhibitor, full curve, poor fit] | 
Cn1cnc([S+](=O)([O-])N2CCC(c3nnc4n3C(C(=O)O)CC4)CC2)c1 (configuration not stated) | inactive: 0.109% |  | 
CC1(c2ccccc2)CCCN(C(=O)c2ccnc(-n3cnnc3)c2)C1 (configuration not stated) |  | inconclusive: 44.7 µM [inhibitor, partial curve, poor fit] | 
O=C1CN(S(=O)(=O)c2ccc(F)cc2)CC(O)CN1CCCc1ccccc1 (configuration not stated) |  | inconclusive: 70.8 µM [inhibitor, partial curve, poor fit] | 
CSCCNC(=O)c1cc(-c2ccc(Cl)cc2Cl)nc2c1cnn2C |  | inconclusive: 39.8 µM [inhibitor, full curve, poor fit] | 
O=[S+]1([O-])NCC2(CCN(CC3CC3)C2)Nc2ccccc21 (configuration not stated) | inactive: -2.55% [at 172 µM] |  | 
O=C(Cc1ccc(F)cc1)NC1CCN(c2nccc(Nc3ccccc3F)n2)CC1 |  | inconclusive: 100 µM [inhibitor, single point] | 
Cc1cccc(-n2cc(CN3CCCC(C)(O)C3)c(-c3cccc(F)c3)n2)c1 (configuration not stated) |  | inconclusive: 56.2 µM [inhibitor, partial curve, poor fit] | 
O=S(=O)(NCCc1noc(-c2ccccc2)n1)c1ccc(Cl)cc1 |  | active: 39.8 µM | 
Cc1ccc(C)c(C(=O)N2CCN(C(=O)c3nnn4c3COC(c3ccccc3)C4)CC2)c1 (configuration not stated) |  | active: 39.8 µM | 
O=C1NC2(CCCN(Cc3cncs3)C2)Oc2ccccc21 (configuration not stated) |  |  | inactive [at 172 µM]
CC(C)CCN1CCC(N2CCN(S(=O)(=O)c3cccc(C(F)(F)F)c3)CC2)C1=O (configuration not stated) |  | inconclusive: 89.1 µM [inhibitor, single point] | 
OC1(CNCc2cc(C(F)(F)F)ccc2F)CNCCOC1 (configuration not stated) | inactive: -1.94% |  | 
CSc1ccc(NC(=O)c2cc3c(s2)CN(C2CC2)C3)cc1 |  | inconclusive: 56.2 µM [inhibitor, partial curve, poor fit] | 
O=C1C(N2CCN(S(=O)(=O)c3ccc(Cl)cc3)CC2)CCN1CCc1ccccc1 (configuration not stated) |  | inconclusive: 79.4 µM [inhibitor, partial curve, poor fit] | 
